Measurements taken from the supplement of paper PMC8728848.
The list shows a part of the results.

Legend:
Experiment in all cases: glycan array binding signal (z-score within array); higher = stronger binding
Settings in all cases: glycan notation: IUPAC condensed, linker removed
Gal(a1-3)Gal(b1-3)GlcNAc = target: Gal(a1-3)Gal(b1-3)GlcNAc
Procedure, shortened: (§1)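 Columns mapping to the same glycan were averaged after glycan names were converted to IUPAC-condensed notation. The data come from 3228 arrays in the Consortium for Functional Glycomics database, limited to those with an available protein sequence. Binding is reported as a within-array Z-score averaged across arrays of one protein sequence and across linkers.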

[1] = target: Gal(a1-3)Gal(b1-3)GlcNAc(b1-2)Man(a1-3)[Gal(a1-3)Gal(b1-3)GlcNAc(b1-2)Man(a1-6)]Man(b1-4)GlcNAc(b1-4)GlcNAc
Procedure, shortened: as §1

[2] = target: Gal(a1-3)Gal(b1-3)[Fuc(a1-4)]GlcNAc(b1-2)Man(a1-3)[Gal(a1-3)Gal(b1-3)[Fuc(a1-4)]GlcNAc(b1-2)Man(a1-6)]Man(b1-4)GlcNAc(b1-4)GlcNAc
Procedure, shortened: as §1

Gal(a1-3)Gal(b1-4)Glc = target: Gal(a1-3)Gal(b1-4)Glc
Procedure, shortened: as §1

Gal(a1-3)Gal(b1-4)GlcNAc = target: Gal(a1-3)Gal(b1-4)GlcNAc
Procedure, shortened: as §1

[3] = target: Gal(a1-3)Gal(b1-4)GlcNAc(b1-3)GalNAc
Procedure, shortened: as §1

[4] = target: Gal(a1-3)Gal(b1-4)[Fuc(a1-3)]GlcNAc
Procedure, shortened: as §1

[5] = target: Gal(a1-3)Gal(b1-4)[Fuc(a1-3)]GlcNAc(b1-2)Man(a1-3)[Gal(a1-3)Gal(b1-4)[Fuc(a1-3)]GlcNAc(b1-2)Man(a1-6)]Man(b1-4)GlcNAc(b1-4)GlcNAc
Procedure, shortened: as §1

Gal(a1-3)GalNAc = target: Gal(a1-3)GalNAc
Procedure, shortened: as §1

[6] = target: Gal(a1-3)[Gal(a1-4)]Gal(b1-4)GlcNAc
Procedure, shortened: as §1

[7] = target: Gal(a1-4)Gal(b1-3)GlcNAc(b1-2)Man(a1-3)[Gal(a1-4)Gal(b1-3)GlcNAc(b1-2)Man(a1-6)]Man(b1-4)GlcNAc(b1-4)GlcNAc
Procedure, shortened: as §1

Gal(a1-4)Gal(b1-4)Glc = target: Gal(a1-4)Gal(b1-4)Glc
Procedure, shortened: as §1

Gal(a1-4)Gal(b1-4)GlcNAc = target: Gal(a1-4)Gal(b1-4)GlcNAc
Procedure, shortened: as §1

[8] = target: Gal(a1-4)Gal(b1-4)GlcNAc(b1-2)Man(a1-3)[Gal(a1-4)Gal(b1-4)GlcNAc(b1-2)Man(a1-6)]Man(b1-4)GlcNAc(b1-4)GlcNAc
Procedure, shortened: as §1

[9] = target: Gal(a1-4)Gal(b1-4)GlcNAc(b1-3)Gal(b1-4)Glc
Procedure, shortened: as §1

Gal(a1-4)GlcNAc = target: Gal(a1-4)GlcNAc
Procedure, shortened: as §1

Gal(a1-6)Glc = target: Gal(a1-6)Glc
Procedure, shortened: as §1

Gal(b1-2)Gal = target: Gal(b1-2)Gal
Procedure, shortened: as §1

Gal(b1-3)Gal = target: Gal(b1-3)Gal
Procedure, shortened: as §1

Gal(b1-3)Gal(b1-4)GlcNAc = target: Gal(b1-3)Gal(b1-4)GlcNAc
Procedure, shortened: as §1

[10] = target: Gal(b1-3)Gal(b1-4)GlcNAc(b1-2)Man(a1-3)[Gal(b1-3)Gal(b1-4)GlcNAc(b1-2)Man(a1-6)]Man(b1-4)GlcNAc(b1-4)GlcNAc
Procedure, shortened: as §1

Gal(b1-3)GalNAc = target: Gal(b1-3)GalNAc
Procedure, shortened: as §1

[11] = target: Gal(b1-3)GalNAc(a1-3)[Fuc(a1-2)]Gal(b1-4)Glc
Procedure, shortened: as §1

[12] = target: Gal(b1-3)GalNAc(a1-3)[Fuc(a1-2)]Gal(b1-4)GlcNAc
Procedure, shortened: as §1

[13] = target: Gal(b1-3)GalNAc(b1-3)Gal(a1-4)Gal(b1-4)Glc
Procedure, shortened: as §1

[14] = target: Gal(b1-3)GalNAc(b1-4)Gal(b1-4)Glc
Procedure, shortened: as §1

[15] = target: Gal(b1-3)GalNAc(b1-4)[Neu5Ac(a2-3)]Gal(b1-4)Glc
Procedure, shortened: as §1

Gal(b1-3)GlcNAc = target: Gal(b1-3)GlcNAc
Procedure, shortened: as §1

[16] = target: Gal(b1-3)GlcNAc(a1-6)Gal(b1-4)GlcNAc
Procedure, shortened: as §1

[17] = target: Gal(b1-3)GlcNAc(b1-2)Man(a1-3)[Gal(b1-3)GlcNAc(b1-2)Man(a1-6)]Man(b1-4)GlcNAc(b1-4)GlcNAc
Procedure, shortened: as §1

[18] = target: Gal(b1-3)GlcNAc(b1-2)Man(a1-3)[Gal(b1-3)GlcNAc(b1-2)Man(a1-6)]Man(b1-4)GlcNAc(b1-4)[Fuc(a1-6)]GlcNAc
Procedure, shortened: as §1

[19] = target: Gal(b1-3)GlcNAc(b1-3)Gal(b1-3)GlcNAc
Procedure, shortened: as §1

[20] = target: Gal(b1-3)GlcNAc(b1-3)Gal(b1-4)Glc
Procedure, shortened: as §1

[21] = target: Gal(b1-3)GlcNAc(b1-3)Gal(b1-4)GlcNAc
Procedure, shortened: as §1

[22] = target: Gal(b1-3)GlcNAc(b1-3)Gal(b1-4)GlcNAc(b1-6)[Gal(b1-3)GlcNAc(b1-3)]Gal(b1-4)Glc
Procedure, shortened: as §1

[23] = target: Gal(b1-3)GlcNAc(b1-3)Gal(b1-4)[Fuc(a1-3)]GlcNAc(b1-6)[Gal(b1-3)GlcNAc(b1-3)]Gal(b1-4)Glc
Procedure, shortened: as §1

[24] = target: Gal(b1-3)GlcNAc(b1-3)GalNAc
Procedure, shortened: as §1

[25] = target: Gal(b1-3)GlcNAc(b1-6)Gal(b1-4)GlcNAc
Procedure, shortened: as §1

B1: Gal 3 (Homo sapiens), P17931 (protein)
chain: MADNFSLHDALSGSGNPNPQGWPGAWGNQPAGAGGYPGASYPGAYPGQAPPGAYPGQAPPGAYHGAPGAYPGAPAPGVYPGPPSGPGAYPSSGQPSAPGAYPATGPYGAPAGPLIVPYNLPLPGGVVPRMLITILGTVKPNANILDFQRGNDVAFHFNPRFNENNRRVIVCNTKLDNNWGREERQSVFPFESGKPFKIQVLVEPDHFKVAVNDAHLLQYNHRVKKLNEISKLGISGDIDLTSASYTMI
Gal(a1-3)Gal(b1-3)GlcNAc
  glycan array binding signal (z-score): 0.324
[1]
  glycan array binding signal (z-score): -0.383
[2]
  glycan array binding signal (z-score): -0.39
Gal(a1-3)Gal(b1-4)Glc
  glycan array binding signal (z-score): -0.347
Gal(a1-3)Gal(b1-4)GlcNAc
  glycan array binding signal (z-score): -0.086
[3]
  glycan array binding signal (z-score): 0.949
[4]
  glycan array binding signal (z-score): -0.393
[5]
  glycan array binding signal (z-score): -0.384
Gal(a1-3)GalNAc
  glycan array binding signal (z-score): -0.387
[6]
  glycan array binding signal (z-score): -0.388
[7]
  glycan array binding signal (z-score): -0.389
Gal(a1-4)Gal(b1-4)Glc
  glycan array binding signal (z-score): -0.394
Gal(a1-4)Gal(b1-4)GlcNAc
  glycan array binding signal (z-score): -0.386
[8]
  glycan array binding signal (z-score): -0.388
[9]
  glycan array binding signal (z-score): 0.248
Gal(a1-4)GlcNAc
  glycan array binding signal (z-score): -0.369
Gal(a1-6)Glc
  glycan array binding signal (z-score): -0.388
Gal(b1-2)Gal
  glycan array binding signal (z-score): -0.388
Gal(b1-3)Gal
  glycan array binding signal (z-score): -0.392
Gal(b1-3)Gal(b1-4)GlcNAc
  glycan array binding signal (z-score): -0.372
[10]
  glycan array binding signal (z-score): 4.28
Gal(b1-3)GalNAc
  glycan array binding signal (z-score): -0.387
[11]
  glycan array binding signal (z-score): 1.11
[12]
  glycan array binding signal (z-score): 2.57
[13]
  glycan array binding signal (z-score): -0.389
[14]
  glycan array binding signal (z-score): -0.389
[15]
  glycan array binding signal (z-score): -0.391
Gal(b1-3)GlcNAc
  glycan array binding signal (z-score): -0.384
[16]
  glycan array binding signal (z-score): -0.392
[17]
  glycan array binding signal (z-score): -0.083
[18]
  glycan array binding signal (z-score): -0.333
[19]
  glycan array binding signal (z-score): 0.585
[20]
  glycan array binding signal (z-score): 0.286
[21]
  glycan array binding signal (z-score): 1.33
[22]
  glycan array binding signal (z-score): 1.46
[23]
  glycan array binding signal (z-score): 0.259
[24]
  glycan array binding signal (z-score): -0.39
[25]
  glycan array binding signal (z-score): -0.387
